# PubChem BioAssay AID1458 (National Center for Advancing Translational Sciences (NCATS), 2008)
# In all, about 210,000 compounds went through this assay and about 5,900 (2.8%) were called active. Inconclusive means that the source gave no clear call. Such entries were picked first, then a sample of the others. Calls follow the shape of the dose curve; as a rule, active = well fitted activation curve with a large enough effect; inconclusive = small, poorly fitted or top-dose-only effect; inactive = no such curve, though single readings can be large or run the other way. Where the call is inconclusive, the potency comes from a doubtful curve fit.
# Assay: qHTS Assay for Enhancers of SMN2 Splice Variant Expression; also: nearly all actives have a fitted effect of over 55% in size; as to activity change, positive = activation: % of control where 0% means no effect
# Conditions: HEK293 SMN2-luciferase splicing reporter, luminescence, 30-36 h; activity change, positive = activation: at 46.1 µM (top of the series)
# Outline: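 HEK293 cells carry an SMN2 […]–luciferase reporter in which exon 7 inclusion puts luciferase in frame. Cells were plated 10-12 h before compound addition, then incubated 30-36 h at 37C. ONE-Glo luminescence was read; sodium butyrate at 4.5 mM final served as control.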
# Potency is read from the fitted curve at half-maximal effect; tags tell the direction and shape of the fitted curve.
Structure (SMILES),Potency,"activity change, positive = activation"
Cc1cc(NC(=O)CCSc2ccc(Cl)cc2)no1,"inconclusive: 3.98 µM [activator, partial curve, poor fit]",
CCOc1ccc(NC(=O)CC2C(=O)N(c3ccccc3)C(=O)N2CCc2sccc2C)cc1 (stereo not drawn),"inconclusive: 0.631 µM [activator, full curve, poor fit]",
CN(C)S(=O)(=O)c1cccc(NC(=O)COC(=O)c2cc(-c3cccc(Br)c3)nc3ccccc23)c1,"inconclusive: 35.5 µM [activator, single point]",
CCOC(=O)c1sc(-c2ccccn2)nc1C,,inactive: 16.5%
Cc1cc2c(ncn2C(C)C)c(N)c1C,"inconclusive: 11.2 µM [activator, partial curve]",
NNC(=S)NCc1ccc2c(c1)OCO2,,inactive: -7.87%
O=c1[nH]c(N/N=C\c2ccc3c(c2)OCO3)nc2ccccc12,active: 8.91 µM,
COc1ccc(N2Cc3ccccc3C2=NC(=O)c2ccc(C)cc2)cc1OC,"inconclusive: 25.1 µM [activator, single point]",
CCOC(=O)c1nnn(C(CC)C(=O)Nc2ccc(F)cc2)c1C(=O)OCC (stereo not drawn),,inactive: -2.74%
COc1ccc2c(c1)-c1nc(NC(=O)c3cccc(Br)c3)sc1CC2,,inactive: -26.3%
Cc1cc(C(=O)N2CCN(c3cccc(Cl)c3)CC2)c2c(C)nn(-c3ccccc3Cl)c2n1,,inactive: 2.8%
Cc1ccc([N+](=O)[O-])cc1N=Cc1ccc(Br)s1,"inconclusive: 12.6 µM [activator, partial curve]",
C/C(=N\NC(=S)NCc1ccccc1)c1cccs1,"inconclusive: 22.4 µM [activator, partial curve]",
CCOC(=O)c1c(C)[nH]c(C(=O)COC(=O)/C=C/c2ccc(OCC#N)c(OC)c2)c1C,,inactive: -3.92%
COC(=O)c1ccccc1C[C@]1(C(=O)OC)C=C[C@H](C)[C@@H](c2ccccc2)N1C(=O)C(F)(F)F,,inactive: -6.5%
COc1ccc2c(c1)CC/C(=C\Nc1ccc3c(c1)OCO3)C2=O,active: 35.5 µM,
CC(=O)NCC(=O)OCC(=O)Nc1nc(-c2ccccc2)cs1,"inconclusive: 8.91 µM [activator, partial curve, poor fit]",
O=C(Nc1ccc(F)cc1F)c1csc(-c2cccs2)n1,"inconclusive: 35.5 µM [activator, single point]",
CC1CCC2(CC1)NC(=O)N(Cc1cccc(C(F)(F)F)c1)C2=O (stereo not drawn),,inactive: -21.8%
CCCCC(=O)Nc1cc(C(=O)NCCc2ccccc2)ccc1Cl,active: 7.94 µM,
O=C(Nc1ccc([N+](=O)[O-])cc1)c1ccccc1F,active: 15.8 µM,
CCOc1ccc(/C=C2/SC(=S)N(n3c(C)ccc3C)C2=O)cc1,,inactive: -20.1%
CCCC(=O)Nc1nnc(SCC)s1,"inconclusive: 2.82 µM [activator, full curve, poor fit]",
COc1ccc(NC(=O)c2ncn(-c3ccccc3)n2)cc1Cl,"inconclusive: 20 µM [activator, partial curve]",

Structure (SMILES),Potency,"activity change, positive = activation"
CCOc1ccc(NC(=O)N(Cc2cn(CC)c3ccccc23)C2CCCCCC2)cc1,"inconclusive: 2.24 µM [activator, partial curve]",
O=c1[nH]c(SCc2ccccc2)nc2[nH]ncc12,"inconclusive: 12.6 µM [activator, single point]",
Cc1ccc(/C=N/Nc2ccc(C(=O)O)cc2)o1,active: 10 µM,
Cc1ccc(NC(=O)Cn2c(=O)n(-c3ccccc3)c(=O)c3ccc(C(=O)NCc4ccc5c(c4)OCO5)cc32)cc1,,inactive: -3.74%
CN1CCc2c(sc3c2c(=O)n(-c2ccccc2)c2nnc(SCc4ccccc4)n32)C1,"inconclusive: 1.58 µM [activator, partial curve]",
O=C(Nc1ccccc1C(F)(F)F)c1noc2c1CCCC2,"inconclusive: 22.4 µM [activator, single point]",
O=C(OCC(=O)N1CCCc2ccccc21)c1cnc(Cl)c(Cl)c1,"inconclusive: 1 µM [activator, full curve]",
Cc1ccc(OCCN2CCCCCC2)c(C)c1,"inconclusive: 0.0126 µM [activator, full curve, poor fit]",
COc1ccc(Br)cc1/C=C/C(=O)Nc1ccc2ccccc2c1,,inactive: -3.9%
Cc1ccc2nc(-c3cccc(NC(=O)CSc4ccc(Cl)cc4)c3)oc2c1,"inconclusive: 0.631 µM [activator, full curve, poor fit]",
O=C(c1cccc(F)c1)N1CCN(c2cccc(Cl)c2)CC1,"inconclusive: 0.891 µM [activator, full curve]",
Cc1c(Cl)cccc1NC(=S)Nc1ccccn1,,inactive: 11.5%
CN(C)CCOC(=O)C12CC3(C)CC(C)(CC(C)(C3)C1)C2,"inconclusive: 7.08 µM [activator, full curve, poor fit]",
Cc1c(C#N)c(N)nc2c3c(sc12)NC(=O)CC3c1ccc(F)cc1 (stereo not drawn),"inconclusive: 14.1 µM [activator, partial curve]",
O=C(NCN1CCN(CCO)CC1)c1cnccn1,,inactive: -4.84%
CCSC1=NN2CCS(=O)(=O)N=C2S1,,inactive: -2.44%
C=CCn1c(SCC(=O)O)nnc1-c1cccc(Cl)c1,,inactive: 5.05%
CCOc1ccc(C(=O)NCC(=O)Nc2ccc(N3CCOCC3)cc2)cc1OCC,"inconclusive: 15.8 µM [activator, single point]",
COCC(=O)Nc1c(I)c(C(=O)NC[C@@H](O)CO)c(I)c(C(=O)N(C)C[C@@H](O)CO)c1I,,inactive: -4.61% [at 20.6 µM]
CC(C)n1c(N2CCN(C(=O)c3cccs3)CC2)nc2ccccc21,"inconclusive: 1.41 µM [activator, full curve, poor fit]",
COc1ccc(C(=O)n2nc(-c3cccnc3)nc2NCc2ccccc2)cc1OC,,inactive: 5.12%
COc1cccc(-c2cc(=O)c3cc(NC(C)=O)ccc3[nH]2)c1,"inconclusive: 4.47 µM [activator, partial curve, poor fit]",
Cc1ccc(C(=O)Oc2ccccc2N2C(=O)C3CCC(C)CC3C2=O)cc1 (stereo not drawn),"inconclusive: 0.1 µM [activator, full curve, poor fit]",
N/C(=N\OC(=O)Cc1cccs1)c1ccc([N+](=O)[O-])cc1,"inconclusive: 4.47 µM [activator, full curve, poor fit]",
